Test results taken from PubChem BioAssay AID1159614 (National Center for Advancing Translational Sciences (NCATS), 2016).
The whole screen tested about 45,000 compounds, of which about 65 (0.1%) were called active. Calls follow the shape of the dose curve; as a rule, active = well fitted activation curve with a large enough effect; inconclusive = small, poorly fitted or top-dose-only effect; inactive = no such curve, though single readings can be large or run the other way. This is one part of the list.

These compounds were tested against Galactocerebrosidase (Homo sapiens) (UniProt P54803) (assay: A Novel Cell-Based Assay to Identify Small Molecules for B -Galactocerebrosidase). Settings: 145M-Twi-hGALC-G270D cells (Twitcher mouse brain line with human GALC G270D), HMU-beta-Gal fluorescence, 48 h; activation: at the top concentration.
How it was run: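 Mutant human GALC (G270D), stably expressed in a Twitcher mouse brain cell line lacking endogenous GALC, is measured in live-treated cells via 6-hexadecanoylamino-4-methylumbelliferyl-β-galactoside hydrolysis (0.1 mM final, pH 5.2) with fluorescent detection.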
Also: 0% is about no effect; nearly all actives have a fitted effect of over 65% in size.

Sequence of UniProt P54803 (P54803 whole entry, looked up): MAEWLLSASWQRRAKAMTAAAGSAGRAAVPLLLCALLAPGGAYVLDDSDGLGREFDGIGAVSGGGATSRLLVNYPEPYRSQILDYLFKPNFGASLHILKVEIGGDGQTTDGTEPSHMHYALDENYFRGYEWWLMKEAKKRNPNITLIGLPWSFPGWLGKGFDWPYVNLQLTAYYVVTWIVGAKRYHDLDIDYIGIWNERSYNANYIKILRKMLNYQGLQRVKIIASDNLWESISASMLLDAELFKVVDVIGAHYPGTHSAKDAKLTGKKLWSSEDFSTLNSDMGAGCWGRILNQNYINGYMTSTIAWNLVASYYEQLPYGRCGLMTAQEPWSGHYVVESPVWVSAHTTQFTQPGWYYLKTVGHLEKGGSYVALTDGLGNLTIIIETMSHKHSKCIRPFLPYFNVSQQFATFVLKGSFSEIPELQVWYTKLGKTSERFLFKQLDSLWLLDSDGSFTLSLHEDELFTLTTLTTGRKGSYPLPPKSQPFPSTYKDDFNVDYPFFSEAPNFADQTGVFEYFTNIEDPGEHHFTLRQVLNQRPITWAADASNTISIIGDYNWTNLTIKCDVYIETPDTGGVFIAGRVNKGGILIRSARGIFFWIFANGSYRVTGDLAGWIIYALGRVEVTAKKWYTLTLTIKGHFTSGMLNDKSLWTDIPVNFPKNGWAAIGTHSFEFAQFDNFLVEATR

Structure (SMILES) | activation
C[N+](C)(C)CCOC(=O)C(O)(c1ccccc1)c1ccccc1 | inactive: -6.42%
Clc1ccc(CCC(Cn2ccnc2)Sc2c(Cl)cccc2Cl)cc1 (stereo not drawn) | inactive: -19.6%
Oc1ccc(Cl)cc1 | inactive: -20%
Cc1ccc(Cn2cccc(C(=O)Nc3nc4ccc(C)cc4s3)c2=O)cc1 | inactive: -6.11%
COc1ccc(NC(=O)CN2C(=O)C(C)N=C(c3ccccc3)c3ccccc32)cc1OC (stereo not drawn) | inactive: -11.6%
CC(C)c1c(CN(C)C(C)Cc2ccccc2)n(C)n(-c2ccccc2)c1=O (stereo not drawn) | inactive: -19.3%
COC(=O)C(Cl)C(=O)OC | inactive: -13%
O=S(=O)(c1ccc(Cl)cc1)c1ccc(Cl)cc1 | inactive: -5.29% [at 114 µM]
CCc1ccc(-n2nc(C)c3c2NC(=O)CSC3c2ccccc2C)cc1 (stereo not drawn) | inactive: -5.65%
O=P1(NCCCl)OCCCN1CCCl (stereo not drawn) | inactive: -15.5%
Cc1ccc(OCC(=O)Nc2ccc(Cl)cc2C(=O)c2ccccc2)c(Br)c1 | inactive: -3.5%
O=c1[nH]c2ccccc2n1C1CCNCC1 | inactive: -16.2%
NC(=O)CN1CCCC1=O | inactive: -6.46%
CC(C)NC(C)C | inactive: -13.3%
N[C@@H](Cc1ccc(Oc2cc(I)c(O)c(I)c2)c(I)c1)C(=O)O | inactive: -7.31%
ClCCN1CCCC1 | inactive: -7.69%
Sc1ccccc1Cl | inactive: -11.3%
Cc1cc(C)cc(NC(=O)CN2C(=O)CN=C(c3ccccc3)c3cc(Cl)ccc32)c1 | inactive: -17.8%
C#C[C@]1(O)C=C[C@H]2[C@@H]3CCC4=CC(=O)CC[C@@H]4[C@H]3CC[C@@]21CC | inactive: -3.95%
O=C(COc1ccc(Br)cc1)Nc1ccc(Cl)cc1C(=O)c1ccccc1 | inactive: 11.3%
Oc1ccc([C@H]2CNCc3c2ccc(O)c3O)cc1O | inactive: -8.99%
CC(C)(C)NCC(O)c1ccccc1Cl (stereo not drawn) | inactive: -8.85%
CN(C(=O)CSc1nc2ccc(NC(=O)COc3ccc(Cl)cc3)cc2s1)c1ccccc1 | inactive: -41.1%
c1cnc2c(c1)ncn2C1CCNCC1 | inactive: -6.88%
COc1cccc(-n2c(/C=C\c3ccc(Cl)cc3)nc3ccccc3c2=O)c1 | inactive: -37.2%

Structure (SMILES) | activation
Cc1ccc(C(C)(C)C)c(OCC(=O)Nc2ccc(Cl)cc2C(=O)c2ccccc2)c1 | inactive: -13.7%
Cc1ccc(OCC(=O)N2CCN(Cc3ccc(F)cc3)CC2)cc1 | inactive: -9.38%
CN(C)C(=S)SSC(=S)N(C)C | inactive: -15.6%
CC(=O)OCC1=C(C(=O)O)N2C(=O)[C@@H](N)[C@H]2SC1 | inactive: -13.5% [at 23.8 µM]
O=[N+]([O-])/N=C1\NCCN1Cc1ccc(Cl)nc1 | inactive: -11.6%
COc1cccc(NC(=O)C2CCN(c3nnc(C)c4c(C)n(-c5ccccc5)nc34)CC2)c1 | inactive: -10.6%
Cc1cccc(OCC(=O)N2CCN(Cc3cc(=O)n4nc(-c5ccccc5Cl)sc4n3)CC2)c1 | inactive: -29.9%
C[C@H]1C(=O)O[C@@H]2CCN3CC=C(COC(=O)[C@](C)(O)[C@]1(C)O)[C@H]23 | inactive: -9.28%
CCOc1ccc(C(=O)Nc2cccc(C(=O)OCc3cc(=O)n4nc(C5CC5)sc4n3)c2)cc1 | inactive: -30.7%
COC(=O)c1cncn1C(C)c1ccccc1 (stereo not drawn) | inactive: -1.74%
CC(CC(C(N)=O)(c1ccccc1)c1ccccc1)N(C)C (stereo not drawn) | inactive: -4.53%
CN1C(=O)NC(=O)C(C)(C2=CCCCC2)C1=O (stereo not drawn) | inactive: -16.8%
Cc1ccccc1-c1nn2c(=O)cc(CN3CCN(C(=O)COc4ccccc4Cl)CC3)nc2s1 | inactive: -12.8%
Cc1ccc(-n2c(/C=C\c3ccc(F)c(F)c3)nc3ccccc3c2=O)c(C)c1 | inactive: -15.7%
CN1C(=O)CN=C(c2ccccc2)c2cc([N+](=O)[O-])ccc21 | inactive: -13.9%
CCOc1c(N2CCOCC2)cnn(C)c1=O | inactive: -31.1%
O=C1c2ccccc2C(=O)c2ccccc21 | inactive: -5.95% [at 23.8 µM]
C=CCc1cc(OC)c(O)c(C(=O)NCCO)c1 | inactive: -11.8%
Cc1ccc2c(=O)n(-c3cccc(Cl)c3)c(=O)[nH]c2c1 | inactive: -15.5%
Cc1ccc2nc(NC(=O)c3cccn(Cc4ccccc4F)c3=O)sc2c1 | inactive: -11.7%
CCC(COC(=O)c1cc(OC)c(OC)c(OC)c1)(c1ccccc1)N(C)C (stereo not drawn) | inactive: -16.3%
COc1cc2[nH]c(=O)n(-c3ccc(C)cc3)c(=O)c2cc1OC | inactive: -7.64%
CCOCCOC(C)=O | inactive: -13.5% [at 114 µM]
CCN(CC)C(=O)c1ccc(NC(=O)COc2ccc(-c3nn(C)c(=O)c4ccccc34)cc2)cc1 | inactive: -5.75%
CC[N+](CC)(CC)CC | inactive: -11.3%

Structure (SMILES) | activation
CCc1ccc(-n2nc(C)c3c2NC(=O)CSC3c2ccc(C(=O)OC)cc2)cc1 (stereo not drawn) | inactive: -8.35%
COc1ccccc1-c1nn2c(=O)cc(CN3CCN(C(=O)COc4ccccc4Cl)CC3)nc2s1 | inactive: -0.097%
O=[N+]([O-])c1ccc([As](=O)(O)O)cc1 | inactive: -19.3%
Cc1ccccc1-c1nc(CN2C(=O)CN=C(c3ccccc3)c3ccccc32)c(C)o1 | inactive: -19.5%
CCCc1cc(N2CCN(c3cccc(C)c3C)CC2)n2cnnc2n1 | inactive: -23.6%
CCN(C(C)=O)c1cccc(-c2ccnc3c(C#N)cnn23)c1 | inactive: -9.64%
O=C(Nc1ccc(Br)cc1C(=O)c1ccccc1Cl)c1ccc(Br)cc1 | inactive: -12.1%
COc1cc(OC)cc(C(=O)Nc2ccc(Cl)cc2C(=O)c2ccccc2Cl)c1 | inactive: -12%
CCC12CN3CC(CC)(CN(C1)C3c1c(C)[nH]c(=O)[nH]c1=O)C2=O (stereo not drawn) | inactive: -12.5%
CC(C)Oc1cccc(NC(=O)c2ccccc2C(F)(F)F)c1 | inactive: -17.9% [at 114 µM]
COc1cc(C[C@@H](C)N)c(OC)cc1Br | inactive: -7.4% [at 129 µM]
O=C(Nc1ccc2nc3n(c(=O)c2c1)CCCCC3)c1cccc(C(F)(F)F)c1 | inactive: -40.1%
C[C@@H]1CC[C@H]2[C@@H](C)C(=O)O[C@@H]3O[C@@]4(C)CC[C@@H]1[C@]32OO4 | inactive: -12.6%
CCC1(c2cccc(O)c2)CCCCN(C)C1 (stereo not drawn) | inactive: -5.57%
C1CCC(NC2CCCCC2)CC1 | inactive: -14.3%
O=c1c2ccccc2nc(/C=C/c2cccc3ccccc23)n1-c1ccc(Cl)cc1 | inactive: -17%
CCN(CC)C(=O)[C@@H]1C=C2c3cccc4[nH]cc(c34)C[C@H]2N(C)C1 | inactive: -2.99% [at 273 µM]
COc1ccc(OCC(=O)N2CCN(CCc3ccncc3)CC2)cc1 | inactive: -12.7%
Cc1ccccc1-n1c(/C=C/c2c(C)[nH]c3ccccc23)nc2ccccc2c1=O | inactive: -18.8%
CNCC(=O)c1ccc(O)c(O)c1 | inactive: -16.3%
O=C(NC(=O)c1c(F)cccc1F)Nc1cc(Cl)c(OC(F)(F)C(F)C(F)(F)F)cc1Cl (stereo not drawn) | inactive: -4.1%
Cc1ccccc1-n1nc(C)c2c1NC(=O)CSC2c1ccc(Cl)cc1 (stereo not drawn) | inactive: -10.1%
Cc1ccc(Cn2cccc(C(=O)Nc3cc(C)on3)c2=O)cc1 | inactive: -14.6%
